# In ChEMBL document CHEMBL4888484, “Replenishing the malaria drug discovery pipeline: Screening and hit evaluation of the MMV Hit Generation Library 1 (HGL1) against asexual blood stage Plasmodium falciparum ,using a nano luciferase reporter read-out” (2022):
# The campaign covered roughly 150,000 compounds. About 540 (0.36%) showed an effect of 50% or more. The list shows a part of the results.
# Tested on: Plasmodium falciparum
# Experiment: Primary screen in NF54 nanoGlo assay, in single point, at 2uM, 72h; a lower Z score goes with more inhibition
# Format: functional, Erythrocyte
# Settings: timepoint 72 hour
SMILES,% Inhibition [%],Z score
CC(C)c1cc(C(=O)N2C[C@H]3CN(Cc4ccccc4)C[C@H]3C2)n[nH]1,-6,0.81
CCCCN(CC(N)=O)S(=O)(=O)N1CC(C)OC(C)C1 (stereo not drawn),-1,0.21
Cc1cc(C)cc(CCC(=O)N2C[C@@H](CN(C)C)[C@@H](CO)C2)c1,-11,1.09
CN(C)S(=O)(=O)N1CCC[C@H](S(=O)(=O)N2CCc3ccccc32)C1,2,-0.25
Cc1cccnc1-n1nc(C2CC2)nc1C(=O)NCC(C)C,-14,1.93
CC1=C(Cc2cn(CCn3cccn3)nn2)C(C)(C)CCC1,7,-1.08
CC(C)NC(=O)Nc1nc2c(s1)CN(C(=O)c1cccn(C)c1=O)CC2,-4,0.6
O=C(c1ccc2cc[nH]c2c1)N1CCNCC1,-7,0.91
O=C(c1ccccc1-c1nc[nH]n1)N1CC(c2cccnc2)C1,-5,1.02
CC1(C)CN(CC(=O)N2CCCC2)c2ccc(S(=O)(=O)NCc3ccc4c(c3)OCO4)cc21,-9,1.3
CCN(C(=O)c1ccc(Cl)cc1OC)c1ccncc1,-7,0.98
Cc1cc(OCC(=O)NC2CCC(C)CC2)nnc1C (stereo not drawn),2,-0.32
CCc1nc([C@@H]2C[C@@H](O)CN2C(=O)OCC2CCCCC2)n[nH]1,-6,1.06
CCC(F)(F)C(C)(C)CS(=O)(=O)N1CCC2C(CCC(=O)N2C2CC2)C1 (stereo not drawn),-13,2.02
COc1ccc(S(=O)(=O)NC[C@H]2O[C@@H](CO)[C@@H](O)[C@H]2N2CCC(C)CC2)cc1,13,-1.49
COc1ccc([C@@H]2NC(=O)c3c(nc4c(cnn4-c4ccccc4)c3C)N2)cc1,-38,4.45
O=C(Nc1cc(S(=O)(=O)N2CCCC2)ccc1Cl)c1cc2c(s1)CCC2,8,-0.99
Cc1csc(CN2C(=O)N[C@]3(CC(C)(C)OC3(C)C)C2=O)n1,-2,0.41
CCOc1ccc(C(=O)N2CCN(c3cc(=O)n(C(C)C)c(=O)n3C(C)C)CC2)cc1OCC,-11,1.79
COCCN1C[C@@H](Cc2cccc3ccccc23)CC1=O,-7,1.39
c1cncc(-c2csc(N3CCC[C@@H](CN4CCOCC4)C3)n2)c1,-4,0.51

SMILES,% Inhibition [%],Z score
CCC(=O)Nc1ccc(NC(=O)c2ccnnc2)cc1Cl,-6,0.87
CCC(OC1CCCC(C)C1)C(=O)Nc1cncnc1N(C)C (stereo not drawn),1,-0.21
CCCn1c(C)cnc1CCNS(=O)(=O)CC,-1,0.06
Cc1ccc([C@@H](CC(=O)NCCC(c2ccccc2)c2ccccc2)c2c[nH]c3ccccc23)c(C)c1,-12,1.14
COc1ccccc1Cc1nnc(NS(=O)(=O)Cc2ccccc2)s1,-9,1.67
Cc1ccc(C(=O)NCC2(Cn3ccnc3)CC2)n1C(F)F,-15,1.93
CC(=O)C1CN(c2nc(C)cc(C(F)(F)F)n2)C1,4,-0.5
CC(C)OCC(=O)Nc1ccc(F)c(C(=O)OC(C)(C)C)c1Cl,-14,1.82
N#Cc1ccc(Br)c(CN2CCS(=O)(=O)C[C@H]2C2CC2)c1,-12,1.19
CC1C(c2ccccc2)NC(c2ccccc2)CC1(O)c1ccc(F)cc1 (stereo not drawn),-3,0.5
CCS(=O)(=O)N1CCC2(CC1)C[C@@H](Cc1cccc(F)c1)CCO2,-8,1.52
O=C(N[C@H]1CCN(C2CCCCCC2)C1)c1cc(F)ccc1F,0,-0.03
COc1nccc2c(NC(=O)N3CCC4C3CCCN4C)cccc12 (stereo not drawn),4,-0.59
Cc1ccc(-c2csc(N3C(=O)CC4CS(=O)(=O)CC43)n2)cc1C (stereo not drawn),38,-5.15
C[C@@H](COCC(F)(F)F)NC(=O)N(C)CC1CCC1,-4,0.53
Cc1cc2c(c(-c3nc4ccccc4s3)c1)O[C@@H](CNC(=O)CCC(F)(F)F)C2,7,-0.9
CC(C)CN1CC2CN(C(=O)C(c3ccncc3)C(C)C)CCN2C1=O (stereo not drawn),-6,1.01
O=C(COC(=O)c1c(F)cccc1Cl)Nc1ccc2c(c1)OCCCO2,-2,0.28
O=C(Nc1ccccc1N1CCOCC1)c1ccc(S(=O)(=O)N2CCOCC2)cc1,2,-0.26
CCn1ccc(C(=O)N2CCC[C@H]2c2nc(-c3ccccc3OC)no2)n1,-11,1.67
CNC(=O)[C@H](C1CCCC1)N1CCN(C(=O)c2ccc(Cl)cc2)CC1,6,-0.99

SMILES,% Inhibition [%],Z score
Cc1cnn(C2CN(CC(=O)N3CC(C)OC(C)C3)C2)c1 (stereo not drawn),-7,0.93
O=C(NCCc1ncc[nH]1)[C@@H]1[C@H]2[C@@H]3CC[C@@H](C3)[C@@H]12,-11,1.44
NC(=O)[C@@H]1CCCCN1C(=O)Cn1ccc(C(F)F)n1,1,-0.2
O=S1(=O)C[C@@H]2[C@H](C1)N(c1ncccn1)CCN2Cc1nc(-c2ccco2)no1,-10,0.91
O=C(Nc1cnsc1)c1ccoc1C1CC1,6,-0.76
CC(=O)Nc1c(C)cc(C)cc1C(=O)O,9,-0.99
C[C@@H](C1CC1)N(Cc1ccccc1)S(=O)(=O)c1ccc(Cl)cc1,-1,0.17
Cn1nc(C2CCOCC2)cc1C(=O)NCCc1cccc(Cl)c1,-23,2.94
CCOc1ccccc1NC(=O)[C@H]1CCCN(c2nc(C)nc3oc(C)c(C)c23)C1,-3,0.35
CCc1nnsc1C(=O)Nc1cnns1,-3,0.42
COc1ccccc1[C@@H]1CNC(=O)c2nc(-c3ncn[nH]3)[nH]c2C1,-9,1.73
O=C1C[C@H](c2ccc(O)cc2)c2c(c(C(=O)O)cn2-c2ccccc2F)N1,-39,4.61
Cc1oc(C(C)C)cc1C(=O)N1C[C@@H]2CC[C@H]1CN(C(=O)c1ccncc1)C2,-7,1.2
CN(C)Cc1cccc(C(=O)N2CCC[C@H]2C2CCCCC2)c1,-7,1.06
O=S(=O)(NCC1(N2CCOCC2)CCCCC1)N1CCCCC1,-5,0.85
COc1cc(C(=O)N2CCC(C(=O)NC(C)(C)C)CC2)cc(OC)c1OCc1ccccc1,-5,0.96
CC(C)CN(Cc1c(-c2ccccc2)noc1N1CCC(C)CC1)C(=O)c1ccc(F)cc1,1,-0.14
O=C(N[C@H](c1cccs1)C1CCOCC1)c1nc(-c2cccs2)cs1,6,-0.82
O=C(c1ccc(-c2ccc3c(c2)OCCO3)s1)N1CCCCCCC1,-46,4.1
CC(C)N1CCC(NC(=O)CN2CCCN(Cc3ccccc3)c3ccccc32)CC1,0,-0.05
CC(C)[C@H](CO)N(Cc1ccccc1)C(=O)c1cnn2c1CCCC2,-1,0.06

SMILES,% Inhibition [%],Z score
CC[C@H](NC(=O)c1cnn(CC)c1)c1ccc(C)cn1,-7,0.66
O=C1CC[C@@H](C(=O)Nc2cccc(OCCn3cccn3)c2)N1,-3,0.32
CC(C)n1ccc(-c2cncc(C(F)F)c2)n1,-12,1.61
CCN1C[C@@H](c2ccccc2)CC2(CCN(S(=O)(=O)N(C)CC)CC2)C1,-14,2.17
CN1CCC(Cc2noc(-c3cn(C[C@H]4COc5ccccc5O4)nn3)n2)CC1,-2,0.3
O=C(c1cccnc1)c1c(F)cc(F)cc1F,3,-0.55
Cc1nn(C)c(C)c1OCc1nnc(C(C)C)o1,-6,0.73
CC1(C)C[C@H](O)c2cccc(NCc3noc4c3CCCC4)c2O1,5,-0.54
Cc1nccn1CCCN(C)C(=O)[C@H](C)c1ccnn1C,-1,0.14
CC1(C)CN(CCn2cncn2)C1(C)C,-6,0.63
CC1CCC(O)(CN2CC[C@H](N(C)Cc3nnc(C4CC4)o3)C2)CC1 (stereo partly drawn),-11,1.55
CC(NC(=O)C(C)N1CCC(C(N)=O)C1)c1cc2ccccc2o1 (stereo not drawn),-14,1.25
CCOC(=O)N1CCN(C(=O)CCc2n[nH]c(-c3ccc(OCc4ccccc4)cc3)nc2=O)CC1,-6,1.07
O=C(Cc1ccsc1)N[C@H]1CCOC[C@H]1C1CCOCC1,-5,0.94
CN(CC1(O)CCC1)C(=O)CCc1cncs1,-8,0.8
COC(=O)CN1CCN(c2noc(C(C)(C)C)n2)CC1,-11,1.35
COc1ccc(CN[C@@H](C)c2ccc(S(C)(=O)=O)c(F)c2)cn1,-13,1.29
Cc1cc(NC(=O)C2CCN(c3ncnc4nc[nH]c34)CC2)nn1C,1,-0.18
Cc1nc(C)c([C@H](C)NC(=O)Cc2cccc(F)c2)s1,2,-0.25
CC(C)C[C@H]1CN(C)CCN1C(=O)CCc1ccccc1C(N)=O,-4,0.69
CCc1noc(C)c1CN[C@@H](C)c1cccc(N2CCOC2=O)c1,-5,0.74
